Experimental data taken from PubChem BioAssay AID504832 (National Center for Advancing Translational Sciences (NCATS), 2011).
Among all 310,000 compounds or so, about 18,000 (5.8%) were called active. Inconclusive results, whose numbers are uncertain, are shown with a selection of clear calls. Calls come from the whole dose curve; as a rule, active = well fitted inhibition curve with a large enough effect; inconclusive = small, poorly fitted or top-dose-only effect, or another doubt; inactive = no such curve, though single readings can be large or run the other way. No potency is given beside an inconclusive call; the fits are too rough.

Assay: Primary qHTS for delayed death inhibitors of the malarial parasite plastid, 48 hour incubation
Conditions: P. falciparum luciferase growth in erythrocytes; series mostly up to 28.7 µM; activity change, negative = inhibition: at the top concentration
In short: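 Cell-based growth assay: transgenic P. falciparum expressing firefly luciferase, cultured in red cells within RPMI 1640 containing 0.5% w/v Albumax, 24 mM bicarbonate and gentamycin. A drop in luciferase activity indicates inhibition.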
% is set by controls: 0 for no effect and ±100 for the full control effect; potency is the fitted concentration of half-maximal effect; tags give direction and shape of the fitted curve.

| Structure (SMILES) | Potency | activity change, negative = inhibition |
| --- | --- | --- |
| COc1ccc(N(C(=O)Cn2nnc(-c3ccc(Cl)cc3)n2)C(C(=O)NCC2CCCO2)c2ccc(C)cc2)cc1 (configuration not stated) | inconclusive [inhibitor, partial curve] | – |
| COc1ccc(-c2cc(CNS(=O)(=O)c3ccc(F)cc3)on2)cc1 | inconclusive [inhibitor, partial curve, poor fit] | – |
| Cc1ccc2c(c1)c1c(n2CCc2ccc(C)nc2)CCN(C)C1 | active: 14.7 µM | – |
| COC(=O)C1=C(C)NC(C)=C(C(=O)OC)C1c1cc2ccc(C)cc2[nH]c1=O | inconclusive [inhibitor, partial curve, poor fit] | – |
| COC(=O)c1ccc(NC(=O)c2ccccc2SC)cc1 | – | inactive: 66.5% |
| Cc1cc(Nc2cnc3ccccc3n2)n(-c2ccccc2)n1 | inconclusive [inhibitor, single point] | – |
| O=C(COC(=O)CCc1c[nH]c(=O)[nH]1)Nc1ccccc1 | inconclusive [inhibitor, partial curve, poor fit] | – |
| CC(=O)c1c(C)[nH]c(C(=O)Nc2cccc(C#N)c2)c1C | inconclusive [inhibitor, single point] | – |
| COCc1ccc(C(=O)NC2CCCc3c2cnn3-c2cc(C)cc(C)c2)s1 (configuration not stated) | inconclusive [inhibitor, single point] | – |
| COc1ccccc1C(=O)NCC(c1ccco1)N1CCc2ccccc21 (configuration not stated) | active: 10.4 µM | – |
| O=C(CSc1nnc(COc2ccccc2)o1)N1CCCCC1 | – | inactive: -22.5% |
| O=C(Nc1ccc2c(c1)oc1ccc(S(=O)(=O)N3CCCC3)cc12)C1CC1 | inconclusive [inhibitor, single point] | – |
| O=C(CSc1ccccn1)N1CCN(S(=O)(=O)c2ccc(Cl)cc2)CC1 | inconclusive [inhibitor, single point] | – |
| COC(=O)C1=C(c2cccc(C#N)c2)C[C@@H]2CC[C@H]1N2C(=O)NCc1ccc(F)cc1 | inconclusive [inhibitor, single point] | – |
| CCOC(=O)C1CCN(C(=O)c2ccc3c(c2)NC(=O)/C(=C\c2cccc(C)c2)S3)CC1 | inconclusive [inhibitor, full curve] | – |
| CCn1c(SCC(=O)c2ccccc2)nc2sc3c(c2c1=O)CCN(C)C3 | inconclusive [inhibitor, full curve] | – |
| O=C(CN1CCN(S(=O)(=O)c2ccc(F)c(F)c2)CC1)Nc1ccccc1C(=O)NC1CC1 | inconclusive [inhibitor, partial curve, poor fit] | – |
| COC(=O)c1ccc(/C=N/NC(=O)C2CC(=O)N(c3ccc(OC)cc3)C2)cc1 (configuration not stated) | inconclusive [inhibitor, single point] | – |
| CCN1CCN(C2=C(NS(=O)(=O)c3ccccc3)C(=O)c3ccccc3C2=O)CC1 | active: 5.86 µM | – |
| COc1cc(NC(=O)c2cncc(-c3ccc(C#N)cc3)c2)cc(C(=O)Nc2cccc(C(F)(F)F)c2)c1 | inconclusive [inhibitor, partial curve] | – |
| N#C/C(=C\c1ccco1)C(=O)NCC1CCCO1 (configuration not stated) | – | inactive: 43.6% |
| Cc1cc(OCC(=O)OCC(=O)NC2CCCCC2C)ccc1Cl (configuration not stated) | – | inactive: -27.3% |
| CCN(/N=C/c1ccc(N(C)C)cc1)c1nc2ccccc2[nH]1 | inconclusive [inhibitor, partial curve] | – |

| Structure (SMILES) | Potency | activity change, negative = inhibition |
| --- | --- | --- |
| Cc1ccc(C(=O)C[n+]2cc(Br)cc(Br)c2)cc1[N+](=O)[O-] | active: 9.28 µM | – |
| CN(Cc1ccccc1)C(=O)CN1C(=O)NC2(CCCC2)C1=O | inconclusive [inhibitor, single point] | – |
| Cc1cc(C)n(-c2nc(NCC(C)O)c3c4c(sc3n2)COC(C)(C)C4)n1 (configuration not stated) | inconclusive [inhibitor, single point] | – |
| C=CCn1c(SCC(=O)NC2(C#N)CCCCC2)nnc1-c1ccncc1 | – | inactive: -4.61% |
| COc1ccccc1NC(=O)C1=C(C)NC2=C(C(=O)CCC2)C1c1ccc(C)o1 (configuration not stated) | inconclusive [inhibitor, single point] | – |
| COC(=O)c1[nH]c2c(c1C)C(=O)CC(c1cc(OC)c(OC)c(OC)c1)C2 (configuration not stated) | inconclusive [inhibitor, partial curve, poor fit] | – |
| Cc1cc(S(=O)(=O)Nc2ccc(C(=O)NCCCn3ccnc3)cc2)ccc1F | inconclusive [inhibitor, single point] | – |
| CN1CC[C@]2(CCN3CCc4c(oc5ccccc45)[C@@H]3C2)N(C)C1=O | inconclusive [inhibitor, single point] | – |
| CCn1cc(C(=O)NCC(OC)OC)c(=O)c2cc(S(=O)(=O)N3CCC(C)CC3)ccc21 | – | inactive: -2.05% |
| CCCN(CCC)C(=O)CC(c1ccccc1)c1cc(Br)ccc1O (configuration not stated) | active: 13.1 µM | – |
| O=[N+]([O-])c1cccc2c([N+](=O)[O-])cccc12 | – | inactive: 12.3% |
| COc1ccc(NC(=O)NC(=O)c2cc(OCC(F)(F)F)ccc2OCC(F)(F)F)cc1 | inconclusive [inhibitor, partial curve] | – |
| CCOc1cc(N2CCOCC2)c(OCC)cc1NC(=O)c1ccc(OC)cc1 | inconclusive [inhibitor, single point] | – |
| O=C(CN1CCN(CCN2C(=O)c3cccc4cccc(c34)C2=O)CC1)c1ccc(F)cc1 | active: 14.7 µM | – |
| CCCn1c(N)c(C(=O)CN(C)CC(=O)Nc2c(C)cc(C)cc2C)c(=O)[nH]c1=O | – | inactive: 17.2% |
| COc1ccc(NC(=O)COc2ccccc2Cc2ccccc2)cc1S(=O)(=O)N1CCOCC1 | active: 11.7 µM | – |
| O=C(C1CCC(=O)N1Cc1ccccc1Cl)N1CCN(c2cccc(Cl)c2)CC1 (configuration not stated) | inconclusive [inhibitor, partial curve, poor fit] | – |
| NS(=O)(=O)c1ccc(NC(=O)CSc2ccccn2)cc1 | – | inactive: 15.4% |
| COc1ccc(C(C(=O)NCC2CCCO2)N(C(=O)Cn2nnc3ccccc32)c2ccccc2C(C)=O)cc1OC (configuration not stated) | inconclusive [inhibitor, single point] | – |
| CCc1nnc(NC(=O)CSc2nnc(-c3cccnc3)n2C)s1 | – | inactive: -2.13% |
| COc1ccc(-n2cc(CN3CCCC3)c(-c3cccc(F)c3)n2)cc1 | inconclusive [inhibitor, single point] | – |
| NS(=O)(=O)c1ccc(NS(=O)(=O)c2ccc(NC(=O)c3ccc(-c4ccccc4)cc3)cc2)cc1 | inconclusive [inhibitor, partial curve, poor fit] | – |
| O=C(CN1C(=O)NC2(CCCC2)C1=O)OCc1ccc(F)cc1 | – | inactive: 11.9% |

| Structure (SMILES) | Potency | activity change, negative = inhibition |
| --- | --- | --- |
| CC(NCC(=O)NC(=O)NC1CCCC1)c1ccc(Cl)cc1Cl (configuration not stated) | inconclusive [inhibitor, partial curve, poor fit] | – |
| Cc1cc(OCC(=O)Nc2ccc(CN3CCOCC3)cc2)c2c(C)c(C)c(=O)oc2c1 | inconclusive [inhibitor, single point] | – |
| COc1ccc(-c2cc(C(F)(F)F)n3ncc(C(=O)N4CCCCC4c4cccnc4)c3n2)cc1 (configuration not stated) | active: 2.94 µM | – |
| O=C1NC(=O)C(=Cc2ccc(-c3ccc(S(=O)(=O)N4CCOCC4)cc3)o2)C(=O)N1 | inconclusive [inhibitor, full curve, poor fit] | – |
| CCCC(O)(CCC)C(=O)NN(C(=O)CCl)c1ccccc1 | inconclusive [inhibitor, single point] | – |
| COc1cccc(NC(=S)N2CCC(Cc3ccccc3)CC2)c1 | inconclusive [inhibitor, partial curve, poor fit] | – |
| CCN(CC)S(=O)(=O)c1ccc2oc(C(=O)N3CCOCC3)c(C)c2c1 | – | inactive: -29.5% |
| CCCCn1c(N)c(N(C)C(=O)c2cc3c(s2)CCCCC3)c(=O)[nH]c1=O | inconclusive [inhibitor, single point] | – |
| CCOc1ccc(NC(=O)CN(C)S(=O)(=O)c2ccc(-c3ccc(=O)[nH]n3)s2)cc1 | inconclusive [inhibitor, full curve] | – |
| Cn1cccc1CNC(=S)Nc1ccccc1F | – | inactive: 5.89% |
| COCCN(CCOC)C(=O)c1ccc(SCc2ccc(C)cc2)c([N+](=O)[O-])c1 | – | inactive: -3.02% |
| COC(=O)CCCC1=CC2=C(c3ccccc3)C(=O)C(C)(OC(=O)C3CCCC3)C(=O)C2=CN1CC1CC1 (configuration not stated) | inconclusive [inhibitor, partial curve] | – |
| O=C(c1cc(COc2ccc(F)cc2F)on1)N1CC2C[C@@H]3CC1C[C@H](C2)C3 | inconclusive [inhibitor, partial curve, poor fit] | – |
| CCCCN1C(=O)c2ccc(C(=O)NC3(C)CCS(=O)(=O)C3)cc2C1=O (configuration not stated) | – | inactive: -8.79% |
| COc1ccc(C(=O)Nc2ccccc2C(=O)NC(Cc2ccc(O)cc2)C(=O)NNC(=O)c2ccncc2)cc1 (configuration not stated) | active: 11.7 µM | – |
| COc1ccc(C(=O)NC(=S)Nc2nc(-c3ccc(OC)c(Br)c3)cs2)cc1Br | inconclusive [inhibitor, single point] | – |
| CNC(=O)c1c(C)nn(-c2ccc(F)c(Cl)c2)c1-c1cc(C)on1 | – | inactive: -6.32% |
| COC(=O)c1cccc(C23CC4(C2)[C@H](CN(Cc2ccc(-c5ccccc5)cc2)[C@@H]4c2ccccc2)C3c2ccccc2)c1 (some centres not stated) | active: 11.7 µM | – |
| CCCCN(CC)c1nc(-c2ccncc2)nc2ccccc12 | active: 2.94 µM | – |
| CCc1cccc(NS(=O)(=O)c2ccc3c(c2)NC(=O)C(C)S3)c1 (configuration not stated) | – | inactive: 17.6% |
| CC(C)c1ccc(S(=O)(=O)c2nnn3c2nc(N2CCCCC2)c2ccccc23)cc1 | inconclusive [inhibitor, partial curve] | – |
